According to PMC4336329 (PLoS ONE, 2015):
In all, about 310,000 compounds went through this assay and about 14,000 (4.5%) showed an effect of 50% or more. The effect is printed as a negative number. This is one part of the list.

biological target: human ether-à-go-go-related gene (hERG) potassium channel (human, UniProt Q12809); experiment: primary screen, population patch clamp on CHO cells stably expressing hERG
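Further: peak tail current of the secondary pulse compared with the same well before compound.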

human ether-à-go-go-related gene (hERG) potassium channel, sequence (Q12809 whole entry, looked up): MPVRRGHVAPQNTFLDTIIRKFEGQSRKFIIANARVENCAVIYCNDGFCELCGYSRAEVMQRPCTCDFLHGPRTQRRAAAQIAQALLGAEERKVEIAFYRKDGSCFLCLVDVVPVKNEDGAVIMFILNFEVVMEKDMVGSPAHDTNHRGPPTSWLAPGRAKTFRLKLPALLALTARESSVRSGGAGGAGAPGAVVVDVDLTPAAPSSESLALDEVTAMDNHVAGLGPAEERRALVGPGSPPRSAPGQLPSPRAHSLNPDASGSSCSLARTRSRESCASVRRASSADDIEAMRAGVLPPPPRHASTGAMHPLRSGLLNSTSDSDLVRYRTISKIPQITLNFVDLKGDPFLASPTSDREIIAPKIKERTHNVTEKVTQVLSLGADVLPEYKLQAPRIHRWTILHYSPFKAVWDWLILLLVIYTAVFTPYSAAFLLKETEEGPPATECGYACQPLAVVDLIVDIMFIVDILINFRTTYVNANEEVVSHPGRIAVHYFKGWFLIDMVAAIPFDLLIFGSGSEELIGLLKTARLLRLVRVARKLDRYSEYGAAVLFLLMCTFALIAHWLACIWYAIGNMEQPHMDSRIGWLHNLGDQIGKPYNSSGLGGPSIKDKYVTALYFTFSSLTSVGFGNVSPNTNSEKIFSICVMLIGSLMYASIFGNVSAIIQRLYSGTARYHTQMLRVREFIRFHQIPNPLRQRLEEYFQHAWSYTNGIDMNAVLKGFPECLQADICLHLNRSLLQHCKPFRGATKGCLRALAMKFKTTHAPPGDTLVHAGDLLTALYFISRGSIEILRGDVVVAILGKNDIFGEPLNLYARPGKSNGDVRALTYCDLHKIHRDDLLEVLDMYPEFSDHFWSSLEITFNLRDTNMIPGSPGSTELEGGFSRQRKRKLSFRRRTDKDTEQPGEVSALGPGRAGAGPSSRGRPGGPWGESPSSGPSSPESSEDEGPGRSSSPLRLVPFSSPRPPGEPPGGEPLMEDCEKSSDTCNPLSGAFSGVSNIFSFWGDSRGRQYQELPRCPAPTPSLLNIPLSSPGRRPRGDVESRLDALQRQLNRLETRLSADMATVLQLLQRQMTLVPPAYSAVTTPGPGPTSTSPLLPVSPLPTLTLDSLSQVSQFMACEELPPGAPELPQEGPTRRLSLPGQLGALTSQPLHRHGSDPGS

Compound	hERG current change (%, negative = inhibition) at 10uM [%]
Cn1cnc([N+](=O)[O-])c1Sc1ccc([N+](=O)[O-])cc1	-62.1
CCOC(=O)N1CCc2c(sc(NC(=O)Cc3ccccc3)c2C(=O)c2ccc(OC)cc2)C1	13.7
CCc1cc2c(NCC3CCCO3)ncnc2s1 (stereo not drawn)	-14.9
COc1ccc(CN(Cc2ccccn2)S(=O)(=O)c2ccc(-n3cnnn3)cc2)cc1	-72.7
COCc1cc(=O)[nH]c(N2CCN(C(=O)c3ccco3)CC2)n1	19.8
CCN(C(=O)Cn1cnc2cc([N+](=O)[O-])ccc2c1=O)C1CCS(=O)(=O)C1 (stereo not drawn)	1.53
Cc1noc(C(=O)N2CCN(Cc3ccc4c(c3)OCO4)CC2)c1Cl	-8.33
COc1nc(N)nc2nc[nH]c12	7.8
CC(=O)c1ccc(OCCCC(=O)Nc2cccc(S(=O)(=O)N3CCCCC3)c2)cc1	-37.3
O=C1NCCN(C(=O)CCc2nnc(-c3ccsc3)o2)C1c1ccc(F)cc1 (stereo not drawn)	-11.8
O=C1NC[C@@H](Cc2cccc3ccccc23)N(CCc2cc(C(F)(F)F)cc(C(F)(F)F)c2)C1=O	20.4
CCOc1ccc(NC(=O)C[n+]2ccccc2)cc1.[Cl-]	6.98
CCOC(=O)c1c(C)nc2ccc(C)cn12	-0.761
Cc1cc(C)n(C(=O)c2cc3sccc3[nH]2)n1	1.84
C#Cc1ccc([C@H]2C=C(C(=O)N3CCN(Cc4ccccc4)CC3)O[C@@H](OCc3ccc(CO)cc3)C2)cc1	-13.3
Cc1cc(C(=O)COC(=O)CN(C)S(=O)(=O)c2ccc(Cl)cc2)c(C)n1CC1CCCO1 (stereo not drawn)	-55.2
COc1ccc(F)cc1S(=O)(=O)N1CCN(Cc2ccc3c(c2)OCO3)CC1	-10.7
COc1ccc(S(=O)(=O)NNC(=O)C2CC(c3cccnc3)=NO2)cc1 (stereo not drawn)	26.6
Cc1cc(C(=O)Nc2ccccc2Cc2ccccc2)no1	-9.09
CCCC(C(=O)OCCN(CC)CC)(c1ccccc1)c1ccccc1.Cl	-53.9
COc1ccc(-c2c(C3=CCCCC3)oc3ccc(-c4ccc5c(c4)OCO5)cc23)cn1	12.8
NC(=O)c1ccc(-n2nnnc2SCc2ccccc2)cc1	8.34
N/C(Cc1ccc([N+](=O)[O-])cc1)=N\OC(=O)COc1ccccc1Cl	-21.2

Compound	hERG current change (%, negative = inhibition) at 10uM [%]
Cn1c2ccccc2c2cc(C(=O)OCC(=O)N3CC(=O)Nc4ccccc43)sc21	6.25
COc1ccc(Oc2cc(NN3CCCCC3)c([N+](=O)[O-])cc2[N+](=O)[O-])cc1OC	-6.43
COc1ccc(-c2cnn(C3CCS(=O)(=O)C3)c2N)cc1 (stereo not drawn)	10.1
COc1ccccc1CC(NC(C)=O)C(=O)NC1CCN(C(=O)Nc2ccccc2F)CC1 (stereo not drawn)	28.3
CC(C)Oc1snc(Cl)c1C(N)=O	12
COc1ccc(N2CCN(C(=O)CSc3ncnc4scc(-c5ccc(C)cc5)c34)CC2)cc1	-0.0765
CCOc1cc(-c2nc(C)c(C(C)=O)n2O)ccc1OCC(=O)Nc1ccc(F)cc1	-0.582
O=S(=O)(CCc1nc2ccccc2o1)c1ccc(Cl)cc1	-7.14
O=c1ccn(Cc2ccccc2)c(=O)n1Cc1ccccc1	-7.89
CCOC(=O)C1=C(N)N(c2ccccc2Oc2ccccc2)C(=O)C1	11.8
Cc1ccc2cc(CCNC(=O)c3ccc4c(c3)OCO4)c(=O)[nH]c2c1C	4.17
CC(=O)NS(=O)(=O)c1ccc(NC(=O)c2cc(-c3cccs3)nc3ccccc23)cc1	16.2
Cc1ccc(NC(=O)CCCC(=O)OC(C)C(=O)c2ccccc2)cc1 (stereo not drawn)	2.74
CC(C)(C)C(=O)CSc1nc(N)cc(=O)[nH]1	15.2
O=C1C2C3C=CC(CC3)C2C(=O)N1c1nccs1 (stereo not drawn)	0.689
NC(=O)c1ccnc2c(O)cccc12.O=C(O)C(F)(F)F	1.46
Cc1nn(Cc2ccc(C(=O)NN)cc2)c(C)c1Cl	7.14
CC(C)CC(CCc1ccccc1)OS(N)(=O)=O (stereo not drawn)	5.18
COc1ccc(Cc2nnc(SCC(=O)N3CCc4ccccc4C3)o2)cc1	-14.2
CCn1c(=S)[nH]c2nc3c(cc2c1=O)CCCC3	7.57
CCCCOc1ccc(C(=O)Nc2ccc(OCC(=O)N3CCOCC3)cc2)cc1	20.9
CCOCCCNC(=S)N1CCC(NC(=O)c2ccco2)CC1	-9.7
CC(=O)Nc1ccc(S(=O)(=O)Nc2ncccn2)cc1	-3.24

Compound	hERG current change (%, negative = inhibition) at 10uM [%]
c1ccn2c(Cc3nnc4ccccn34)nnc2c1	-0.74
COc1ccc2c(c1)C(=O)N(c1ccccc1)C(=O)C2	8.85
COc1ccc(C2=CC(=O)C[C@H](c3ccc4c(c3)OCO4)C2)cn1	5.43
Cc1cccc(OCc2nnc(SCC(=O)O)n2Cc2ccccc2)c1	28.1
O=[N+]([O-])c1ccc(/C=C/c2nc3ccc([N+](=O)[O-])cc3[nH]2)cc1	-23.1
O=c1c(CN2CCN(Cc3ccccc3F)C(CCO)C2)coc2ccccc12 (stereo not drawn)	-3.11
O=C(NNC(=O)C1CCC(C(=O)NNC(=O)c2cccs2)CC1)c1cccs1 (stereo not drawn)	7.92
CSc1nc(Oc2ccc(=O)n(C)n2)nc(N(C)C)n1	9.21
COc1ccccc1-c1cc(C(=O)N/N=C\c2cnn(C)c2C)c2ccccc2n1	-3.85
COc1ccc(NC(C)=O)cc1NC(C)C(=O)Nc1cccc2ccccc12 (stereo not drawn)	6.32
CC1COC(c2cccn2Cc2ccccc2Cl)=N1 (stereo not drawn)	3.84
Cc1c(C(=O)N2CCCc3ccccc32)sc2nc(-c3ccccc3)cn12	-3.24
Brc1ccc(OCc2nnnn2-c2ccccc2)cc1	11.3
COc1cc(C)ccc1OCc1cc(C(=O)NCCN2CCOCC2)no1	2.08
CSCCC(NC(=O)COc1ccccc1)C(=O)N(C)Cc1ccc(Cl)cc1Cl (stereo not drawn)	-24.5
COc1ccc(CCNC(=O)Cn2cnc3c(cnn3-c3ccccc3Cl)c2=O)cc1OC	-1.24
C=CCNC(=S)NCCCCC1NC(=S)N(CC=C)C1=O (stereo not drawn)	13.2
O=C(COc1ccccc1)Nc1ccc(C(=O)N2CCCC2)cc1	8.44
CC(C)(Oc1ccc(Cl)cc1)C(=O)N1CCN(c2ccccn2)CC1	-32
O=C(c1ccccc1)N1N=C(c2ccccc2)CC1c1ccc2nccnc2c1 (stereo not drawn)	-28.7
O=C1CS/C(=N/N=C2CCCC2)N1	9.21
Cc1ccc(N2CN(CCC3=CCCCC3)CNC2=S)cc1	18
O=C(NCCCNC1CCCCC1)c1ccc(/C=N/O)nc1	-10.9

Compound	hERG current change (%, negative = inhibition) at 10uM [%]
CCOC(=O)Oc1ccc2oc(C)c(C(=O)OCCOC)c2c1	-7.01
COc1ccc(OC)c(CNC(=O)CCn2c(=O)c3cccn3c3ccc(F)cc32)c1	-62.2
CCOC(=O)C(=N/O)/C(C)=N/NC(=O)C(=O)Nc1ccc(Cl)cc1	-4
O=C(NCc1cccnc1)Nc1ccc([N+](=O)[O-])cc1	4.63
Cc1nc2c(C)cccn2c1/C(O)=C1\C(=O)C(=O)N(CCN2CCOCC2)C1c1ccncc1 (stereo not drawn)	6.97
O=C(COn1nnc2ccc(Cl)cc21)NCc1ccccc1	-1.03
Cc1ccc(C(=O)NCC(=O)Nc2ccncc2)s1	12.6
O=C(NCCCN1CCOCC1)c1ccccc1NS(=O)(=O)c1cc([N+](=O)[O-])ccc1Cl	-27.3
Cc1ccccc1C(=O)NC1CCN(C(=O)Nc2ccccc2Cl)CC1	44.9
COc1ccccc1-c1nnc(-c2ccc(N3CCOCC3)cc2)o1	-35.9
Cc1ccccc1CN1[C@@H]2c3ccccc3C[C@@H]2OCCS1(=O)=O	-3.4
CC1CC(=O)N(Cc2ccccc2)c2ccccc2N1C=O (stereo not drawn)	-4.41
CN1CCc2c([nH]c3ccccc23)C1	12.5
CC12CN3CC(c4ccccc4)(CN(C1)C31CCCCC1)C2=O	-10.8
CCNC(=O)/C(C#N)=C/c1c(N2CCCCCC2)nc2c(C)cccn2c1=O	-12.2
Cc1ccc(CNCc2cccnc2)cc1	6.45
Cc1ccc(NCc2nnc(SCC(=O)Nc3ncc(C)s3)n2CC2CCCO2)c(C)c1 (stereo not drawn)	-12.4
Cc1cccc(C(=O)OCC(=O)NN2C(=O)NC3(CCCCC3)C2=O)c1	19.7
CCNc1nc(NCC)nc(ON=C(C)C)n1	18.1
O=C(O)c1ccccc1NS(=O)(=O)c1cccc2nsnc12	18.3
O=C(NCc1ccncc1)C(=O)NCC1OCCN1S(=O)(=O)c1ccc(Cl)cc1 (stereo not drawn)	4.42
